In PubChem BioAssay AID504466 (National Center for Advancing Translational Sciences (NCATS), 2011):
About 4,200 (1.3%) of roughly 330,000 compounds were called active. Inconclusive means that the source gave no clear call. Such entries were picked first, then a sample of the others. Calls come from the whole dose curve; as a rule, active = well fitted activation curve with a large enough effect; inconclusive = small, poorly fitted or top-dose-only effect; inactive = no such curve, though single readings can be large or run the other way. A potency beside an inconclusive call is a rough fit, not a confirmed value.

Assay: qHTS screen for small molecules that induce genotoxicity in human embryonic kidney (HEK293T) cells expressing luciferase-tagged ELG1; note: nearly all actives have a fitted effect of over 60% in size; for activity change, positive = activation: % of control where 0% means no effect
Conditions: HEK293T ELG1-luciferase reporter, luminescence, 16 h; series mostly up to 46 µM; activity change, positive = activation: at the top concentration
Procedure, shortened: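 HEK293T cells expressing luciferase-tagged ELG1 were treated with compound or DMSO for 16 hr at 37°C. Luciferase activity was then read after 30 min with ONE-Glo at room temperature; rising signal flags genetic stress.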
Potency is the fitted concentration of half-maximal effect; tags give direction and shape of the fitted curve.

SMILES | Potency | activity change, positive = activation
O=C(CCN1C(=O)/C(=C/C=C/c2ccccc2)SC1=S)Nc1cccnc1 | inconclusive: 16.4 µM [activator, partial curve] | –
CCN(CCn1cccn1)C(=O)c1cc(COc2ccccc2SC)on1 | inconclusive: 4.61 µM [activator, full curve] | –
Cc1ccc(C(=O)NCC(=O)NCC(c2ccco2)N2CCCCC2)cc1C (stereo not given) | – | inactive: 0.577%
COc1ccc(C(=O)CSc2nc(N)nc(SC)c2C#N)cc1 | – | inactive: 0.651%
Cc1ccc(C(=O)C(C)OC(=O)c2ccccc2[N+](=O)[O-])cc1 (stereo not given) | active: 7.31 µM | –
COc1ccc(NC(=O)c2ccccc2F)cc1Cl | active: 9.2 µM | –
CCCCCC(NC(=O)C1CCN(C(=O)[C@@H](NS(=O)(=O)c2ccc(C)cc2)C(C)C)CC1)C(=O)O (stereo not given in full) | – | inactive: 5.54%
Cc1[nH][nH]c(=O)c1C=NCc1ccc(Cl)cc1 | – | inactive: 1.31%
FC(F)(F)Oc1ccc(Nc2nc3ccccc3o2)cc1 | inconclusive: 18.4 µM [activator, partial curve, poor fit] | –
CCOC(=O)c1snc(C(=O)NC2CCCCC2)c1N | active: 8.2 µM | –
Cc1ccc(-c2nn(C)c(=O)c3ccccc23)cc1CNS(C)(=O)=O | inconclusive: 20.6 µM [activator, partial curve] | –
CC(=O)C(Sc1nc(N2CCOCC2)nc(N2CCOCC2)n1)C(=O)Nc1ccccc1 (stereo not given) | inconclusive: 20.6 µM [activator, partial curve, poor fit] | –
COc1ccc(CC(=O)Nc2ccc(-c3nnc(-c4ccc(C)cc4)o3)cc2)cc1 | inconclusive: 14.6 µM [activator, partial curve, poor fit] | –
CCCC(=O)Nc1ccc(NC(=O)c2ccccc2Cl)nc1 | inconclusive: 20.6 µM [activator, single point] | –
CN(C)c1ccc(C(=S)Nc2ccccc2)cc1 | inconclusive: 1.46 µM [activator, full curve] | –
CCCn1nc(NC(=O)C2CCCO2)c2cc3cc(C)ccc3nc21 (stereo not given) | inconclusive: 10.3 µM [activator, partial curve, poor fit] | –
C=CCc1c(C)[nH]c2ccc(C)cc2c1=O | inconclusive: 25.9 µM [activator, single point] | –
O=C(O)c1cccc(S(=O)(=O)Nc2cccc(S(=O)(=O)N3CCCC3)c2)c1 | – | inactive: -1.41%
Cc1onc(-c2ccccc2Cl)c1C(=O)OCC(=O)N1CCCCC1 | – | inactive: 0.201%
CCOC(=O)c1c(C)[nH]c(C(=O)OCC(=O)Nc2sc(C(=O)N(C)C)c(C)c2C(=O)OCC)c1C | – | inactive: -37.4%
O=C1NC(Cc2c[nH]c3ccccc23)C(=O)N1c1ccc(F)cc1 (stereo not given) | – | inactive: -0.696%
CN(C)CCCN=c1cc(-c2ccccc2)oc2ccc(Cl)cc12 | inconclusive: 29.1 µM [activator, single point] | –
COc1ccc(/C(N)=N/OC(=O)c2ccc(Br)o2)cc1 | inconclusive: 9.2 µM [activator, partial curve] | –
COc1ccccc1N(C(=O)c1ccco1)C(C(=O)NC1CCCC1)c1ccc(N2CCOCC2)cc1 (stereo not given) | – | inactive: 3.85%
COc1cc(/C=C/c2ccc3cccc(O)c3n2)cc(OC)c1OC | inconclusive: 20.6 µM [activator, single point] | –

SMILES | Potency | activity change, positive = activation
Cn1c(=O)[nH]c(=O)c2c1nc(N1CCN(c3ccccc3)CC1)n2CCSc1ncccn1 | – | inactive: -3.46%
COc1ccc2c(c1)sc(=N)n2CC(=O)Nc1cc(C)cc(C)c1 | – | inactive: -4.55%
Cn1c(=NC(=O)C2=NNC(=O)CC2)sc2ccccc21 | inconclusive: 29.1 µM [activator, partial curve, poor fit] | –
Cc1ccccc1-c1nc(Cc2ccc(Cl)cc2)no1 | active: 23.1 µM | –
CN1/C(=C\C(=O)c2cccc([N+](=O)[O-])c2)Sc2ccccc21 | active: 9.2 µM | –
CCN1CCN(C(=O)c2cc3ccc(OC)cc3[nH]2)CC1 | inconclusive: 20.6 µM [activator, partial curve, poor fit] | –
Cc1cccc(NC(=O)c2ccc(C(=O)c3ccccc3)cc2)n1 | active: 20.6 µM | –
FC(F)(F)c1cccc(Sc2cc(C(F)(F)F)nc(-c3ccccn3)n2)c1 | – | inactive: -9.63%
O=C(Nc1cccc(-c2cnc3ccccc3n2)c1)C1CC(=O)N(c2ccccc2)C1 (stereo not given) | – | inactive: -10%
COc1ccc(Cc2noc(CN3CCN(Cc4cccc(Cl)c4)CC3)n2)cc1OC | – | inactive: -8.18%
O=C(NC(=S)NNC(=O)c1ccc(Cl)cc1Cl)c1cccnc1 | – | inactive: -5.1%
CCOc1ccc(C(=O)/C=C/Nc2ccc(S(=O)(=O)N=C(N)N)cc2)cc1 | inconclusive: 20.6 µM [activator, single point] | –
Nc1cc(N2CCCC2)ccc1[N+](=O)[O-] | inconclusive: 18.3 µM [activator, partial curve, poor fit] | –
S=C(Nc1ccccn1)c1ccccn1 | active: 12.6 µM | –
O=C(NC(=S)Nc1ccc2ncccc2c1)c1ccccc1 | inconclusive: 13 µM [activator, partial curve] | –
CCn1cc(S(=O)(=O)N2CCc3ccccc3C2)cn1 | – | inactive: -0.941%
CCN(C(=O)Cn1c(=O)oc2ccccc21)c1c(N)n(Cc2ccccc2)c(=O)[nH]c1=O | – | inactive: -3.22%
c1ccc2c3nnc4n(c-3nc2c1)CCCS4 | inconclusive: 20.6 µM [activator, single point] | –
CCOC(=O)c1c(-c2ccco2)csc1NC(=O)COC(=O)c1cnccn1 | – | inactive: -0.601%
O=C1CCC(=O)N1c1ccc(-c2nc3ccccc3s2)cc1 | inconclusive: 0.366 µM [activator, full curve] | –
O=C1CCc2cc(S(=O)(=O)Nc3ccccc3)cc3c2N1CC3 | inconclusive: 16.4 µM [activator, partial curve, poor fit] | –
COc1cc(C(C)=O)ccc1OCC(=O)Nc1cc(C)on1 | inconclusive: 23.1 µM [activator, partial curve, poor fit] | –
Cc1csc(NC(=O)Nc2ccc(Cl)cc2)n1 | inconclusive: 16.4 µM [activator, single point] | –
COc1cccc(-c2csc3ncnc(Sc4nnnn4C)c23)c1 | – | inactive: -5.73%
NC(=O)c1nsc(C(=O)N(CC(=O)NC2CCCCC2)Cc2ccc(F)cc2)c1N | inconclusive: 18.3 µM [activator, partial curve, poor fit] | –

SMILES | Potency | activity change, positive = activation
O=C(Nc1ccc(F)cc1F)NC1CCCCCCC1 | inconclusive: 14.6 µM [activator, partial curve] | –
N#Cc1nc(-c2cccc(Cl)c2)oc1NCc1cccnc1 | inconclusive: 23.1 µM [activator, partial curve, poor fit] | –
COc1ccccc1Cc1nc(-c2cccnc2)no1 | – | inactive: 9.77%
COc1ccc(NC(=O)C2CCCO2)cc1 (stereo not given) | – | inactive: 4.74%
COc1cc(OC)cc(-c2nnc(Nc3nc4c(F)cccc4s3)o2)c1 | – | inactive: -15.3%
COc1cc(-c2nnc(NC(=O)CCS(=O)(=O)c3ccc(F)cc3)o2)cc(OC)c1OC | inconclusive: 20.6 µM [activator, partial curve, poor fit] | –
c1ccc(-c2noc(-c3cccc4ccccc34)n2)nc1 | inconclusive: 2.06 µM [activator, partial curve] | –
CS(=O)(=O)c1ccc2c(c1)sc1nc(=O)c(/C=C3/C=CC(=O)C(O)=C3)c(N)n12 | inconclusive: 20.6 µM [activator, partial curve, poor fit] | –
Cc1c(C(=O)N(Cc2ccc(Cl)cc2)C2CCS(=O)(=O)C2)oc2ccccc12 (stereo not given) | – | inactive: 0.259%
Cc1ccc(NC(=O)CCc2nnc3ccc(N4CCC(C)CC4)nn23)nc1 | – | inactive: 5.11%
COc1ccc(CNc2nc3ccccc3n2C)c(O)c1 | inconclusive: 7.3 µM [activator, partial curve] | –
COC(=O)Cc1csc(/N=C/c2c(O)n(-c3cccc(C(F)(F)F)c3)c(=O)c3ccccc23)n1 | inconclusive: 25.9 µM [activator, partial curve, poor fit] | –
CC(Nc1ccc(F)cc1)=[N+](C)CCNS(=O)(=O)c1ccc(Cl)cc1 | – | inactive: -4.44%
CC(=O)Nc1ccc(C#Cc2ccc(NC(C)=O)cc2)cc1 | inconclusive: 18.4 µM [activator, partial curve, poor fit] | –
Cc1cccc(/C=C/C(=O)c2ccc(NC3=NCCCS3)cc2)c1 | inconclusive: 32.6 µM [activator, partial curve, poor fit] | –
CC(=O)c1ccc(NC(=O)c2ccc([N+](=O)[O-])o2)cc1 | inconclusive: 20.6 µM [activator, partial curve, poor fit] | –
CC(Oc1cccc(Cl)c1)C(=O)Nc1nc(-c2ccccn2)cs1 (stereo not given) | inconclusive: 29.1 µM [activator, single point] | –
CCc1noc(C)c1C(=O)NC1CC(C)(C)Cc2c1cnn2-c1ccccc1 (stereo not given) | – | inactive: -0.736%
O=C(O)c1cccc(S(=O)(=O)Nc2ccc3c(c2)CCC3)c1 | – | inactive: 5.41%
COCn1c(COc2ccc3ccccc3c2)nc2ccccc21 | inconclusive: 5.8 µM [activator, full curve, poor fit] | –
Cc1ccc(S(=O)(=O)N2CCC(C(=O)OCC(=O)NCCc3ccccc3)CC2)cc1C | – | inactive: -0.269%
Cc1ccc(CNC(=O)c2cc(S(=O)(=O)N3CCCCC3)ccc2N2CCOCC2)cc1 | – | inactive: -6.32%
Cc1c(C(=O)NCc2cccnc2)sc2nc(-c3ccccc3)cn12 | inconclusive: 9.2 µM [activator, partial curve, poor fit] | –
COc1ccc(/C=C2\CCCC(C(=O)C(F)(F)F)=C2O)cc1 | inconclusive: 16.4 µM [activator, single point] | –
O=C(Nc1cnc2ccccn2c1=O)c1ccc(Cl)cc1 | inconclusive: 9.2 µM [activator, partial curve] | –
